Measured values: PMC4336329 (PLoS ONE, 2015)
The whole screen tested about 310,000 compounds, of which about 14,000 (4.5%) showed an effect of 50% or more. The effect is printed as a negative number. The list shows a part of the results.

biological target: human ether-à-go-go-related gene (hERG) potassium channel (human, UniProt Q12809); experiment: primary screen, population patch clamp on CHO cells stably expressing hERG
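Note: peak tail current of the secondary pulse compared with the same well before compound.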

Sequence of human ether-à-go-go-related gene (hERG) potassium channel (Q12809 whole entry, looked up): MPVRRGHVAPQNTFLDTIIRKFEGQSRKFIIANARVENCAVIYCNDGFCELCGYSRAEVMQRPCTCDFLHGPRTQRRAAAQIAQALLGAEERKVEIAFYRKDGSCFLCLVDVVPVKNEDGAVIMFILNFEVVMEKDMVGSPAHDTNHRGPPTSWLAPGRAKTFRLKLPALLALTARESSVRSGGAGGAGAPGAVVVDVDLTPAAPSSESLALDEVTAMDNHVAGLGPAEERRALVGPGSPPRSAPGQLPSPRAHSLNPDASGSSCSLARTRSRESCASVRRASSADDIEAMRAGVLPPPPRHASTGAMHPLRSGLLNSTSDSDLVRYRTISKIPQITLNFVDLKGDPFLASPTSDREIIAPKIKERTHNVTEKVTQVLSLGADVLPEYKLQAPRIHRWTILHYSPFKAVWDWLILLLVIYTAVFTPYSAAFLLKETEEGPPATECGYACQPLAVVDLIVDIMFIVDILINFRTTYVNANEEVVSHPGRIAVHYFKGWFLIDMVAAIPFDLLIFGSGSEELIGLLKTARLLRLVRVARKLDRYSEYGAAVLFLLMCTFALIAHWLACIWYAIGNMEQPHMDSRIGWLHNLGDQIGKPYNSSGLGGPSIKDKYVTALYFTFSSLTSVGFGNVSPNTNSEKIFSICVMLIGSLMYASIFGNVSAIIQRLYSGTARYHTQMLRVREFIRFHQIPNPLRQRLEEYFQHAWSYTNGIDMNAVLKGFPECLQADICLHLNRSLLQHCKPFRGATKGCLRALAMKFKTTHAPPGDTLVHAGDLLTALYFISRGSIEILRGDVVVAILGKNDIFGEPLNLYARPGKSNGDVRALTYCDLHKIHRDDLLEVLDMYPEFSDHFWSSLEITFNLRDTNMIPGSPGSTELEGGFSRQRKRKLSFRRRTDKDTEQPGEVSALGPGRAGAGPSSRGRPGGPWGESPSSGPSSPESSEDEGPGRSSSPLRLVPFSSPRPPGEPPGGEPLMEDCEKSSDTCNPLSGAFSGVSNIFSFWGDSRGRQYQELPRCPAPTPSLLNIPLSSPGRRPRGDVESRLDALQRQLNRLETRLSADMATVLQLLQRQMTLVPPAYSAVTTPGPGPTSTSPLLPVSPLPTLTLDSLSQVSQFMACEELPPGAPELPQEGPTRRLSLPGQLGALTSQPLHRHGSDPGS

SMILES	hERG current change (%, negative = inhibition) at 10uM [%]
COC(=O)CCC(=O)Nc1cc(Cl)cc(Cl)c1	3.72
Cn1c(NC(=O)/C=C/c2c(F)cccc2Cl)cc(=O)n(C)c1=O	16.9
CC(=O)c1cc2c(cc1NC(=O)c1ccc(Cl)cc1)OCCO2	19.5
Oc1c(Cl)cc(CN2CCOCC2)c2cccnc12	-2.08
COc1ccc(CN=C(C)c2c(C(F)(F)F)[nH]n(-c3nc4ccccc4s3)c2=O)cc1	13.5
CCOC(=O)C1=C(COC(=O)C2CC(=O)N(c3ccc(C)cc3)C2)NC(=O)NC1C (centres unmarked)	-7.55
COc1cc(C(=O)OCCN2CCCCC2)ccc1O.Cl	3.87
CC1CC(C)CN(C(=O)C(NS(=O)(=O)c2ccc(Br)s2)c2ccccc2)C1 (centres unmarked)	-5.18
Cc1ccc(C2c3sc(=O)[nH]c3SC3C(=O)NC(=O)C32)cc1 (centres unmarked)	2.65
Cc1ccc(C(CC(=O)N2CCOCC2)c2ccco2)cc1 (centres unmarked)	5.91
CCN1C(=O)CSc2ccc(C(=O)OC)cc21	13.4
COc1cccc(/C=C2/Sc3ccc(C(=O)NCCCN4CCCC4)cc3NC2=O)c1	-59.8
COc1cc(NC(=O)c2cccc3c2C(=O)N(Cc2cccnc2)C3)cc(OC)c1OC	-79.2
O=C(Nc1ccnn1C1CCN(C2CCCC2)CC1)c1ccccc1Cl	-45
O=[N+]([O-])c1cccc(S(=O)(=O)N2CCCCCC2)c1	-15
Cc1cc2c(c(=O)n1Cc1cccnc1)C(c1cccs1)C(C#N)=C(N)O2 (centres unmarked)	2.28
Cc1ccnc(NC(=O)CNC(=O)Cc2cccc3ccccc23)c1	-0.565
Cl.OC(CN1C2=NCCN2c2ccccc21)c1ccc2c(c1)OCO2 (centres unmarked)	-63.6
COc1ccc(NC(=O)Nc2cnccn2)cc1OC	23.8
CC(=O)NCCC(=O)Nc1ccc(C)c(F)c1	0.223
O=C(NCc1cccs1)C1CCCN1C(=O)Nc1cccc(F)c1 (centres unmarked)	5.9
COCCNC(=O)C(C)Oc1ccccc1 (centres unmarked)	13.4
CC(C)CC(=O)c1c[nH]c(C(=O)O)c1	19.9
COc1ccc(CCNC(=O)CSc2ncn[nH]2)cc1	-8.41
Cn1c(=O)c(C(=O)NCCCc2ccccc2)c(O)c2ccccc21	13.9
Cc1ccc(S(=O)(=O)N/N=C/c2ccc3nccnc3c2)cc1	21.9
